Laboratory results as given in PubChem BioAssay AID485294 (National Center for Advancing Translational Sciences (NCATS), 2010).
Among all 370,000 compounds or so, about 150 (0.041%) were called active. The inconclusive results got no clear call from the source; some entries with a clear call stand among them for comparison. Calls follow the shape of the dose curve; as a rule, active = well fitted inhibition curve with a large enough effect; inconclusive = small, poorly fitted or top-dose-only effect; inactive = flat fitted curve, though single readings scatter. Potencies of inconclusive entries are left out as doubtful fits.

Biological target: Beta-lactamase (Escherichia coli (strain K12)) (UniProt P00811)
Test: qHTS Inhibitors of AmpC Beta-Lactamase (assay with detergent); also: nearly all actives have a fitted effect of over 25% in size
Conditions: AmpC hydrolysis of nitrocefin, absorbance 480 nm, 0.01% Triton; series mostly up to 114 µM
In short: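 AmpC (5.3 nM in the dispensed reagent) in 20 mM phosphate pH 7.0 with 0.01% (detergent screen) or 0.0001% Triton X-100 was preincubated with compounds for 15 min at room temperature. Nitrocefin was then added from an 800 uM solution, and hydrolysis was followed at 480 nm.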
Potency is read from the fitted curve at half-maximal effect; tags tell the direction and shape of the fitted curve.

Chain of UniProt P00811 (P00811 whole entry, looked up): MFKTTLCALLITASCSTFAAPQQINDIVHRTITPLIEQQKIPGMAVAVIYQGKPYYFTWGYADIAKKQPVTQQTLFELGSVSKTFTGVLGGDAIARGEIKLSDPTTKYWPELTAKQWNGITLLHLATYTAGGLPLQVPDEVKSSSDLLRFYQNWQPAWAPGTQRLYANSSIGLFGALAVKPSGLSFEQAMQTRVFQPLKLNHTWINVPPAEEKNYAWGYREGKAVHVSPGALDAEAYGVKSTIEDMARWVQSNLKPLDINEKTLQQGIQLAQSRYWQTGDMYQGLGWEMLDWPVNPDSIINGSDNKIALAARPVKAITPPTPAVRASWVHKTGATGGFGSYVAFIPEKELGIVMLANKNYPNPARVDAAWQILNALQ

Row | SMILES | Potency
1 | COc1ccc(Cl)cc1NC(=O)COC(=O)CCCN1C(=O)c2ccccc2C1=O | inconclusive [inhibitor, full curve, poor fit]
2 | O=C(CC1C(=O)NCCN1Cc1cccc(C(F)(F)F)c1)NCCCOc1cccnc1 (centres undefined) | inconclusive [inhibitor, partial curve]
3 | O=S(=O)(NCc1ccccn1)c1cc(Cl)ccc1Cl | inconclusive [inhibitor, single point]
4 | Cc1ccc(NS(=O)(=O)c2cc(C(=O)Nc3cccc([N+](=O)[O-])c3)ccc2C)cc1 | inactive
5 | CC(=N)C1=C(O)CC(C)(C)CC1=O | inactive
6 | COc1ccc(Nc2n[nH]c(C)c2[N+](=O)[O-])cc1 | inactive
7 | Cc1cc(C)n(-c2ccc(C(=O)Nc3ccc(S(=O)(=O)NCc4ccco4)cc3)cc2)n1 | inconclusive [inhibitor, partial curve]
8 | COC(=O)c1sccc1NC(=O)Nc1cccc([N+](=O)[O-])c1 | inconclusive [inhibitor, full curve, poor fit]
9 | O=C1c2ccc3c4c(ccc(c24)C(=O)N1NC(=O)C(F)(F)F)CC3 | inconclusive [inhibitor, full curve, poor fit]
10 | O=C(Nc1ccccc1C(=O)NCc1ccco1)c1ccccc1 | inactive
11 | COc1ccc(CC(=O)NCc2ccccn2)cc1OC | inconclusive [inhibitor, full curve, poor fit]
12 | CC1CCC(CN2CCN=C2N(C)C)CC1 (centres undefined) | inconclusive [inhibitor, partial curve, poor fit]
13 | CC(=O)Oc1ccc(C(=O)Nc2nnc(C)s2)cc1 | inconclusive [inhibitor, full curve, poor fit]
14 | N#C/C(=C(/O)COc1ccccc1)c1nc2ccccc2s1 | inconclusive [inhibitor, single point]
15 | O=C(COc1ccccc1[N+](=O)[O-])N/N=C/c1ccccn1 | inconclusive [inhibitor, full curve, poor fit]
16 | C=CCn1c(N)c(C(=O)N2CCOCC2)sc1=S | inconclusive [inhibitor, full curve]
17 | CC[C@]1(c2ccccc2)C(=O)N(C(=O)OC)N1C(=O)OC | inconclusive [inhibitor, partial curve, poor fit]
18 | COC(=O)CC1C(=O)NCCN1C(=O)c1c(F)cccc1F (centres undefined) | inconclusive [inhibitor, partial curve]
19 | O=C(NCCC1=CCCCC1)C(=O)NCC1OCCCN1S(=O)(=O)c1ccc(F)cc1 (centres undefined) | inconclusive [inhibitor, full curve, poor fit]
20 | CC(C)c1nnc(NC(=O)CCN2C(=O)c3ccccc3C2=O)s1 | inconclusive [inhibitor, partial curve]
21 | CCn1c2ccccc2c2cc(CN3CCN(Cc4ccc(Cl)cc4)CC3)ccc21 | inactive
22 | Cc1cccc(CNc2ncnc3ccc(-c4cccnc4)cc23)c1 | inconclusive [inhibitor, partial curve, poor fit]
23 | COc1cccc(-c2nnc(SCC(=O)N(C)c3ccccc3)o2)c1 | inactive

Row | SMILES | Potency
24 | Nc1cc(-c2ccc(Cl)cc2)nn1S(=O)(=O)c1ccc(Cl)cc1 | inconclusive [inhibitor, full curve]
25 | CCOc1cc(/C=N/NC(=O)c2cccc(S(=O)(=O)N3CCOCC3)c2)ccc1OCC(=O)N(C)C | inconclusive [inhibitor, full curve, poor fit]
26 | COc1cc2c(cc1OC)C(Cc1ccc(O)cc1)NCC2 (centres undefined) | inconclusive [inhibitor, full curve, poor fit]
27 | CC1=NN(C2=NS(=O)(=O)c3ccccc32)C(C)(O)C1 (centres undefined) | inconclusive [inhibitor, partial curve, poor fit]
28 | Cc1ccc(NC(=O)CSc2ccc(C(N)=O)cc2[N+](=O)[O-])cc1C | inconclusive [inhibitor, full curve, poor fit]
29 | COc1ccc2c(c1)cc(C(=O)O)n2C | inconclusive [inhibitor, single point]
30 | Cc1ccc(NC(=O)CCC(=O)NNS(=O)(=O)c2ccccc2)cc1C | inconclusive [inhibitor, partial curve]
31 | COc1ccc(NC(=O)N2CCCCCC2)cc1OC | inconclusive [inhibitor, partial curve, poor fit]
32 | O=C(Cc1c(F)cccc1Cl)Nc1ccncc1 | inconclusive [inhibitor, full curve, poor fit]
33 | CC(C)(CO)NC(=O)C(c1ccccc1)c1ccccc1 | inconclusive [inhibitor, full curve, poor fit]
34 | CC1=C(C(=O)Nc2ccccn2)C(c2ccc(Br)cc2)NC(=S)N1 (centres undefined) | inactive
35 | O=C(O)c1cc([N+](=O)[O-])c(Sc2nc3ccccc3[nH]2)c([N+](=O)[O-])c1 | inconclusive [inhibitor, partial curve, poor fit]
36 | CNC(=O)c1c(NC(=O)CS(=O)(=O)c2ccc(F)cc2)sc(C)c1C | inconclusive [inhibitor, partial curve, poor fit]
37 | CCCN(C(=O)Cc1nc(-c2ccc(OC)cc2)no1)c1ccccc1C | inactive
38 | Cc1ccc(-c2[nH]ncc2/C=N/n2c(C)nc3ccccc3c2=O)cc1 | inactive
39 | COCCn1c(=O)[nH]c2cc(C(=O)NCc3ccccc3)ccc2c1=O | inactive
40 | COc1ccc(N2CCN(C(=O)CN3CCN(C(c4ccccc4)c4ccccc4)CC3)CC2)cc1 | inconclusive [inhibitor, single point]
41 | O=C(CS(=O)(=O)c1ccccc1)Nc1nc2ccccc2s1 | inconclusive [inhibitor, full curve, poor fit]
42 | Cc1cccc(NC(=O)CSc2nnc([C@@H]3CCCN3C(=O)OC(C)(C)C)o2)c1C | inconclusive [inhibitor, full curve, poor fit]
43 | CC(NC(=O)CCNS(=O)(=O)c1cccc2nonc12)c1ccccc1 (centres undefined) | inconclusive [inhibitor, single point]
44 | COC(=O)c1c(C)n(Cc2ccc3c(c2)OCO3)c2ccc(O)cc12 | inactive
45 | O=C(NCCc1ccc(F)cc1)C(=O)NCC(c1cccs1)S(=O)(=O)c1ccc(Cl)cc1 (centres undefined) | inactive
46 | Cc1cc(C)nc(N/N=C/c2ccccc2OCc2ccc(Cl)cc2)n1 | inconclusive [inhibitor, partial curve, poor fit]

Row | SMILES | Potency
47 | O=C(c1ccc(Br)cc1)c1cc2ccc(O)cc2oc1=O | inactive
48 | CC(C)(C)n1nnnc1C(c1cccs1)N1CCCC2(CCCCC2)C1 (centres undefined) | inconclusive [inhibitor, partial curve, poor fit]
49 | Cc1cc(NS(=O)(=O)c2ccc(NC(=O)/C=C/c3ccc(C)o3)cc2)nc(C)n1 | inactive
50 | O=C(O)c1cc(NN=Nc2cccc(S(=O)(=O)O)c2)cc([N+](=O)[O-])c1 | inconclusive [inhibitor, full curve, poor fit]
51 | Nc1nnc(SCC(=O)OCC(=O)NC23CC4CC(CC(C4)C2)C3)s1 | inconclusive [inhibitor, full curve, poor fit]
52 | Cc1ccc(C)c2nc3sc(C(=O)N4CCOCC4)c(N)c3cc12 | inactive
53 | CCc1cccc2c(C(=O)COC(=O)c3ccc([N+](=O)[O-])s3)c[nH]c12 | inactive
54 | COc1ccccc1OCC(=O)N(Cc1nnc(-c2ccccc2Cl)o1)C1CC1 | inconclusive [inhibitor, full curve, poor fit]
55 | CCCNC(=O)C(Cc1ccc(OC)cc1)NC(=O)c1ccc(Cl)cc1 (centres undefined) | inactive
56 | Clc1cccc(CSC2=NCCCN2)c1 | inactive
57 | c1ccc(-c2nnc(-c3ccco3)n2-c2ccccc2)cc1 | inconclusive [inhibitor, single point]
58 | Cc1ccc(SCC(=O)Nc2ccccc2C(=O)O)cc1 | inactive
59 | CCCNC(=O)c1noc2c1CCc1ccccc1-2 | inactive
60 | COc1ccc(CCC(=O)NCC23CC4CC(CC(C4)C2)C3)cc1 | inactive
61 | NC(=O)Cc1ccc(C(=O)c2ccccc2F)s1 | inactive
62 | COc1ccc(S(=O)(=O)N(Cc2ccccc2)c2ccccc2C(=O)N2CCOCC2)cc1 | inconclusive [inhibitor, full curve, poor fit]
63 | CC1CCCCC1NC(=O)Cn1[nH]c(=O)c2ccccc2c1=O (centres undefined) | inconclusive [inhibitor, full curve, poor fit]
64 | Cc1cccc(NC(=O)c2ccccc2OCC(=O)c2ccccc2)c1 | inconclusive [inhibitor, full curve, poor fit]
65 | CN(C)C1=NC[C@H](Cc2ccccc2)N1CC1CCC(C(C)(C)C)CC1 (some centres undefined) | inconclusive [inhibitor, full curve, poor fit]
66 | Cc1noc(C)c1COc1cccc(C(=O)Nc2ccccc2N2CCOCC2)c1 | inactive
67 | Cc1ccc(CNC(=O)CN(C)S(=O)(=O)c2ccc3c(c2)c(=O)n(C)c(=O)n3C)cc1 | inconclusive [inhibitor, partial curve]
68 | Cc1oc(-c2ccc(Cl)cc2)nc1CS(=O)CC(=O)NCc1cccs1 (centres undefined) | inconclusive [inhibitor, full curve, poor fit]
69 | Cc1cccc(NC(=O)c2ccco2)c1C | inconclusive [inhibitor, full curve, poor fit]
